Source: PubChem BioAssay AID463173 (ICCB-Longwood Screening Facility, Harvard Medical School, 2010)
Screen size: about 52,000 compounds; about 4,300 (8.3%) were called active. Cut-off read from the data, not from the text of the source: active = survival mostly below about 52% (no sharp cut-off); inactive = mostly above about 56%. The list shows a part of the results.

test system: DeltatarO mutant; test: S. aureus survival, RN4220 and DeltatarO strains – OD600, teichoic acid synthesis inhibitors, primary screen (AID 463173); conditions: S. aureus RN4220 wild type/DeltatarO growth, OD600, 18 h, active compounds read low, screened at 18.75 µg/mL (by protocol)

Compound	survival
CC(=O)N1CCN(S(=O)(=O)c2ccc(C)cc2)C1C(C)C (centres undefined)	inactive: 106%
CCC(Cn1nnc2ccccc2c1=O)NC(=O)Nc1cc(C)cc(C)c1 (centres undefined)	active: 41%
CC(C)C(=O)Nc1nnc2n1CCS2	inactive: 101%
CCOc1ccc(CNC(=O)c2cccc(NC(=O)N3CCSc4ncccc43)c2)cc1OC	inactive: 92%
CCc1ccc(C(=O)c2cn(CC(=O)Nc3ccc(Cl)cc3)c3cc4c(cc3c2=O)OCO4)cc1	inactive: 146%
CCOc1cc2sc(N3CCC(C(=O)Nc4ccc(CC)cc4)CC3)nc2cc1Br	inactive: 86%
CC(=O)N1CCCc2cc(S(=O)(=O)N3CCCC(C(=O)N4CCN(c5cccc(Cl)c5)CC4)C3)ccc21 (centres undefined)	inactive: 81%
Cc1ccc(C)c(CSc2nnc3[nH]c(=O)cc(C)n23)c1	inactive: 67%
Cc1ccc(S(=O)(=O)n2nc(C)c(S(=O)(=O)N3CCCCCC3)c2C)cc1	inactive: 109%
CC(C)c1nn2c(=O)cc(COC(=O)c3cccc(NC(=O)COc4ccc(F)cc4)c3)nc2s1	inactive: 89%
COc1ccc(NC(=O)Cn2c(=O)n(-c3cc(C)cc(C)c3)c(=O)c3oc4ccccc4c32)cc1OC	inactive: 68%
COc1cc(CN2CCN(C3CCCCCC3)CC2)cc(OC)c1OC	inactive: 87%
O=C(NCCc1ccccc1)c1nn(-c2ccccc2F)nc1CO	inactive: 88%
Cc1ccc2c(CNCCc3ccccc3)c(C(=O)O)n(Cc3ccccc3C)c2c1	active: 6%
COCCNC(=O)CCC(=O)NNc1nc2ccccc2c2nc(C)nn12	inactive: 82%
CCOc1ccccc1NC(=O)c1c(NC(=O)COc2ccc(Cl)cc2)sc2c1CCCCC2	inactive: 62%
O=C(CN1CCC(N2CCCCC2)CC1)NC12CC3CC(CC(C3)C1)C2	inactive: 95%
CS(=O)(=O)N1CCc2cc(C(=O)N3CCN(c4cccc(Cl)c4)CC3)ccc21	inactive: 49%
COc1ccc(Br)cc1C1C(C(=O)Nc2ccc(C)cc2C)=C(C)Nc2ncnn21 (centres undefined)	inactive: 76%
Cc1ccc(NC(=O)C2(c3cccs3)CCOCC2)cc1Cl	inactive: 83%
Cc1ccc(C)c(N2CCN(C(=O)c3cn(CC(C)C)c(=O)c4c3c3ccccc3n4C)CC2)c1	inactive: 28%
COCCCNc1nc(NCc2ccccc2OC)c2cnn(C)c2n1	inactive: 107%
Cc1ccc(C)c(CSc2nc(-c3ccccc3F)nc3c2Cc2c(CO)cnc(C)c2O3)c1	inactive: 108%

Compound	survival
CCC1CC(/C(C)=N/NC(N)=O)OC1=O (centres undefined)	inactive: 71%
COc1ccccc1C(=O)Nc1ccc(NC(=O)c2cccs2)cc1	inactive: 51%
COc1ccc(Nc2cc(C(=O)NCCCN(C)Cc3ccccc3)c3ccccc3n2)c(OC)c1	inactive: 66%
CCOc1ccc(S(=O)(=O)NCC(c2ccco2)S(=O)(=O)c2ccc(C)cc2)cc1 (centres undefined)	inactive: 55%
COc1ccccc1NC(=O)N1CCN(c2nnc(C)c3c(C)n(-c4ccc(Cl)cc4)nc23)CC1	inactive: 75%
CC(C)N(C(=O)CSc1nnc(-c2cccs2)o1)C(C)C	inactive: 61%
CCOc1ccccc1NC(=O)COC(=O)c1cn(CC)c2nc(C)ccc2c1=O	inactive: 61%
COc1cc(-c2nc3ccccn3c2Nc2ccccc2C)ccc1O	inactive: 57%
COc1ccc(OC)c(C2c3c(-c4ccc(Br)cc4)n[nH]c3C(=O)N2c2ccc(Cl)cc2)c1 (centres undefined)	inactive: 89%
CCOc1ccc(NC(=O)c2ccc3c(SCC(=O)O)c4c(nc3c2)CCC4)cc1	inactive: 90%
CC1(C)Cc2[nH]c(=S)c(C#N)cc2CO1	inactive: 88%
CCOc1ccccc1-c1noc(CSc2nnc(-c3ccccc3)n2-c2cccc(C)c2)n1	inactive: 62%
CCOC(=O)c1c(Nc2cccc(C(=O)OC)c2)nnc(-c2ccccc2)c1-c1ccccc1	active: 16%
CCn1nc(C(C)C(=O)O)c2ccccc2c1=O (centres undefined)	inactive: 78%
Cn1nc(-c2ccccc2F)c2cc(C(=O)NCc3ccc(Cl)cc3)sc21	inactive: 87%
COc1ccc(C2=C(C(C)=O)Sc3nnc(-c4ccc(C)cc4)n3N2C(C)=O)cc1OC	inactive: 95%
CC(=O)N(CC(C)C)c1nnc(-c2cccnc2)s1	inactive: 73%
CC1CCc2c(sc(NC(=O)Cn3nnc(-c4ccc(C(F)(F)F)cc4)n3)c2C#N)C1 (centres undefined)	inactive: 67%
COc1ccc(CC(=O)NCCc2sc(-c3ccc(Cl)cc3)nc2C)cc1OC	inactive: 80%
OP(Oc1ccccc1)(Oc1ccccc1)=P(O)(Oc1ccccc1)Oc1ccccc1	inactive: 97%
COC(=O)CCC(=O)Nc1cccc2ccccc12	inactive: 103%
N#Cc1ccc(OC(=O)c2cc(-c3ccc(Cl)cc3)on2)cc1	inactive: 89%
O=C(CCC1N=C2c3ccccc3N=C(SCC(=O)Nc3ccccc3F)N2C1=O)NCc1ccco1 (centres undefined)	inactive: 102%

Compound	survival
Nc1ccc2nc(C(F)(F)F)[nH]c2c1	inactive: 95%
Cc1ccc(NC(=O)CN(C)S(=O)(=O)c2ccc3c(c2)n(C)c(=O)c(=O)n3C)c(C)c1	inactive: 82%
COc1ccc(OC)c(NC(=O)CCNS(=O)(=O)c2cccc3nsnc23)c1	inactive: 49%
COc1ccccc1CNc1ccc(-c2nc(-c3ccccn3)no2)cc1[N+](=O)[O-]	active: 43%
CCc1ccc(NC(=O)CSc2nc3n[nH]c(C)c3c(=N)n2-c2ccc(C)cc2)cc1	inactive: 134%
COc1cc(Cl)c(C)cc1NC(=O)Cn1cc(S(=O)(=O)N2CCN(c3ccccc3F)CC2)c2ccccc2c1=O	inactive: 86%
Cc1cccc(CCNC(=O)C2CCC(CNS(=O)(=O)c3c(C)cc(C)cc3C)CC2)c1 (centres undefined)	inactive: 72%
O=C(Cc1ccc(NC(=O)N2CCCCc3ccccc32)cc1)NCc1ccccc1Br	inactive: 88%
Cc1oc(-c2ccccc2)nc1Cn1c(SCc2cccc(C(F)(F)F)c2)nc2cccnc21	inactive: 75%
CCc1ccccc1Nc1nn2c(=O)c3ccc(C(=O)NC4CCC(C)CC4)cc3nc2s1 (centres undefined)	inactive: 95%
CC(=O)Nc1ccc(S(=O)(=O)NCc2ccc3c(c2)CCN3C(C)=O)cc1	inactive: 89%
COc1ccc(-n2ncc(C(=O)N3CCN(Cc4ccccc4)CC3)c2C2CCN(C(=O)OC(C)(C)C)CC2)cc1	inactive: 90%
CCOc1cc(C(=O)N(Cc2nc(-c3ccc(C)cc3)no2)C(C)C)cc(OCC)c1OCC	active: 50%
COc1cc(NC(=O)c2ccco2)c(OC)cc1NC(=O)CCC(=O)NC1CCN(Cc2ccccc2)CC1	inactive: 78%
CCc1cnc2c(c1SCc1c(F)cccc1Cl)c(=O)n(C)c(=O)n2C	inactive: 87%
O=C(NCC1CCCO1)C12CC3CC(CC(C3)C1)C2 (centres undefined)	inactive: 109%
Cc1nn(C(=O)COc2ccc(Cl)cc2)c(C)c1Sc1ccccc1	inactive: 87%
NC(=O)Cn1nnc(-c2ccccc2N)n1	inactive: 99%
CCOC(=O)c1ccc(NC(=O)CC2C(=O)N(c3ccccc3)C(=O)N2Cc2ccc(C)cc2)cc1 (centres undefined)	inactive: 63%
COc1ccc(CCNC(=O)CCCn2c(=O)c3ccccc3n(CC(=O)Nc3cccc(C)c3)c2=O)cc1OC	inactive: 83%
CCOC(=O)c1c(NC(=O)c2ccc(S(=O)(=O)N3CCC(C)CC3)cc2)sc2c1CCN(C(C)C)C2	inactive: 93%
CCc1ccc(CN2C(=O)c3ccccc3C2C(=O)NC2CCCCCC2)cc1 (centres undefined)	inactive: 75%
CC(C)(C)C(=O)Nc1ccc(-c2nc3ccccc3s2)cc1	inactive: 71%

Compound	survival
CCC1C(=O)NN=C1C (centres undefined)	inactive: 99%
Cc1ccc(C)c(NC(=O)c2cc(S(=O)(=O)NCCc3ccccc3)ccc2F)c1	inactive: 91%
COc1ccc(NC(=O)C2CCN(S(=O)(=O)c3cc(-c4noc(C)n4)ccc3C)CC2)cc1	inactive: 108%
Cc1cccc(NC(=O)CN2C(=O)CCn3nc(-c4cccn4C)cc32)c1C	inactive: 84%
Cc1noc(/C=C/c2ccccc2F)c1S(=O)(=O)N1CCC(C(=O)Nc2ccc(C#N)cc2)CC1	inactive: 95%
CCCCNC(=O)CCn1c(=O)c2ccccc2n(Cc2cccc(Cl)c2)c1=O	inactive: 80%
CCOC(=O)C1CCCN(C(=O)c2ccc3c(c2)N(Cc2ccc(Cl)cc2)C(=O)c2ccccc2S3=O)C1 (centres undefined)	inactive: 60%
Cc1ccc(-c2csc3nnc(SCC(N)=O)n23)cc1	inactive: 101%
O=S(=O)(NCc1ccncc1)c1ccc(C2CCCCC2)cc1	inactive: 79%
CC(C)Sc1ncnc2c1cnn2-c1ccccc1	inactive: 90%
CN(C(=O)CSc1nc2ccccc2n1CC(=O)N(C)C1CCCCC1)c1ccccc1	inactive: 94%
Cc1ccc2c(CNC3CCCC3)c(C(=O)O)n(Cc3ccc(F)cc3)c2c1	inactive: 103%
NC(=O)c1ccccc1NS(=O)(=O)c1ccccc1	inactive: 97%
O=C(Cn1c(=O)c2ccccc2n2nncc12)Nc1cccc(F)c1	inactive: 85%
O=C(NCc1nc2ccccc2[nH]1)c1cccc(Cl)c1	inactive: 63%
CCOC(=O)c1c(C)[nH]c(C)c1S(=O)(=O)N(C)CC(=O)NCc1cccc(Br)c1	inactive: 88%
COc1ccc(NC(=O)NCCn2nnc3cc(S(=O)(=O)N(C)C)ccc32)cc1	inactive: 80%
COCCOC(=O)C1=C(C)OC(N)=C(C#N)C1c1cc2cc3c(cc2nc1Cl)OCO3 (centres undefined)	inactive: 87%
CC1CCN(c2ccc(-c3nc(-c4ccccc4)no3)cc2[N+](=O)[O-])CC1	inactive: 102%
CCc1cccc(C)c1NC(=O)CCCN1C(=O)C(c2ccccc2)Oc2cccnc21 (centres undefined)	inactive: 83%
